This note sets out measurements from publication PMC4336329 (PLoS ONE, 2015).

Structures are written as SMILES. About 14,000 (4.5%) of roughly 310,000 compounds showed an effect of 50% or more. The effect is printed as a negative number. The list shows a part of the results.
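Further: peak tail current of the secondary pulse compared with the same well before compound.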

human ether-à-go-go-related gene (hERG) potassium channel, sequence (Q12809 whole entry, looked up): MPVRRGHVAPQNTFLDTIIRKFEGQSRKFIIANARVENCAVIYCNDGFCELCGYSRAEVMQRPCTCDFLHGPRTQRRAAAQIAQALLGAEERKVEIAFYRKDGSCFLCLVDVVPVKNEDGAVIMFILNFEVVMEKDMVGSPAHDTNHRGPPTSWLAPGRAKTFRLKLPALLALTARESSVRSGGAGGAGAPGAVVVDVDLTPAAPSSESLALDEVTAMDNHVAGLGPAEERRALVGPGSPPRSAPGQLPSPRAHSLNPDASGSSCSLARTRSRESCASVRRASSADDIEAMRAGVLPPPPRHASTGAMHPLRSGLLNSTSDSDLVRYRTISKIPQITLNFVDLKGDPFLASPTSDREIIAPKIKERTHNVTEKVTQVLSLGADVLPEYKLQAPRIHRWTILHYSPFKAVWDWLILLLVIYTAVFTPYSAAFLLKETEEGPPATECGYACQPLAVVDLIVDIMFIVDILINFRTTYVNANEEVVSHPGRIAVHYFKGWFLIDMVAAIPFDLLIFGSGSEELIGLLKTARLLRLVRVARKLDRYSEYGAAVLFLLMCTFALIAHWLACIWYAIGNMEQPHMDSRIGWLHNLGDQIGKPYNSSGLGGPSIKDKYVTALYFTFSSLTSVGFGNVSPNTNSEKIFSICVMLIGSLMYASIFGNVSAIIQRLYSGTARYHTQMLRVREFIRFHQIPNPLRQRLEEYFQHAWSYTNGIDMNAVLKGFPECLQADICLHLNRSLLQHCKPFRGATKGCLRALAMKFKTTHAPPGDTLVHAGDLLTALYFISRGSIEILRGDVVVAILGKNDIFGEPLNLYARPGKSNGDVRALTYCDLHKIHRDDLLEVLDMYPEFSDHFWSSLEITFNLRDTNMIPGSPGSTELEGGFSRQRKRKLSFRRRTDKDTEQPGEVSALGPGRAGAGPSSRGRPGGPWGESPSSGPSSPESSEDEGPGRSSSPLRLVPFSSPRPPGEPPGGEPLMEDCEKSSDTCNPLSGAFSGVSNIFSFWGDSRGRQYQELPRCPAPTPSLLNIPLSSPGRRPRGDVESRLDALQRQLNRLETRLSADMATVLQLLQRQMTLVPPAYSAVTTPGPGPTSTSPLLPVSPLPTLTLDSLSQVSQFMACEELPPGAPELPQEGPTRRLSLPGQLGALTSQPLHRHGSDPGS

This assay has as its target human ether-à-go-go-related gene (hERG) potassium channel (human, UniProt Q12809). Briefly: primary screen, population patch clamp on CHO cells stably expressing hERG.
On to `COC(=O)c1cc(NS(=O)(=O)c2ccc(N3CCOCC3)c([N+](=O)[O-])c2)cc(C(=O)OC)c1`, for which the “hERG current change (%, negative = inhibition) at 10uM” value is on record as 9.23%.

Turning to `CCCCN(CC)Cc1ccc(CNC(=O)Nc2ccccc2)o1`, the “hERG current change (%, negative = inhibition) at 10uM” value is listed as -9.65%.

Regarding `CC(C)(C)c1ccc(S(=O)(=O)N2CCc3nc4ccccc4c(C(=O)O)c3C2)cc1`, the “hERG current change (%, negative = inhibition) at 10uM” value is reported as 16.1%.

As for `COc1ccccc1C(=O)NCCC(=O)NCCOc1ccccc1`, the “hERG current change (%, negative = inhibition) at 10uM” value stood at 8.24%.

For the compound `COc1ccc(/C=N/Nc2nc(N3CCCCC3)nc(N3CCCCC3)n2)cc1[N+](=O)[O-]`, the “hERG current change (%, negative = inhibition) at 10uM” value is -11.3%.

Turning to `COc1ccc(Oc2ccccc2/C=C/C(=O)O)cc1`, the “hERG current change (%, negative = inhibition) at 10uM” value is on record as 15.7%.

For `O=C(CN1CCN(c2cccc(Cl)c2)CC1)Nc1nccs1`, the “hERG current change (%, negative = inhibition) at 10uM” value is given as -31.5%.

Take `CC(NC(=O)c1cccs1)c1n[nH]c(=S)n1C` (stereo not shown): the “hERG current change (%, negative = inhibition) at 10uM” value turned out to be 12.9%.

Consider `CCOC(=O)CC(=O)CSc1nccc(-c2cccnc2)n1`, for which the “hERG current change (%, negative = inhibition) at 10uM” value came out at 4.57%.

As to `CCOc1ccccc1CNc1nc2ccccc2n1C`, the “hERG current change (%, negative = inhibition) at 10uM” value was -20.6%.

For `O=C(NCC(=O)N1CCN(S(=O)(=O)c2ccccc2)CC1)c1ccc2ccccc2c1`, the “hERG current change (%, negative = inhibition) at 10uM” value is reported as -53.5%.

In the case of `CCOC(=O)[C@H]1[C@H]2COc3ccccc3[C@@H]2N2C(=O)c3cc(F)c(F)cc3NC(=O)[C@@]12C`, the “hERG current change (%, negative = inhibition) at 10uM” value is -30.9%.

Take `CC(C)(C)c1cc(NS(=O)(=O)c2ccc(Br)s2)no1`: the “hERG current change (%, negative = inhibition) at 10uM” value is reported as -1.48%.

As for `O=c1[nH]c(C2CCN(S(=O)(=O)c3ccccc3F)CC2)nc2c1nnn2Cc1ccc(OC(F)(F)F)cc1`, the “hERG current change (%, negative = inhibition) at 10uM” value worked out at 26.1%.

On to `Cc1cc(Cl)ccc1OCCCC(=O)N/N=C/c1cccc([N+](=O)[O-])c1`, for which the “hERG current change (%, negative = inhibition) at 10uM” value came to 22.2%.

`CCOc1ccc(S(=O)(=O)N2CCCC(C(=O)NCc3ccncc3)C2)cc1C` (stereo not shown): the “hERG current change (%, negative = inhibition) at 10uM” value is 1.92%.

Take `COC(=O)C(c1ccccc1)N(Cc1cccc(CN(C(C(=O)OC)c2ccccc2)S(C)(=O)=O)c1)S(C)(=O)=O` (stereo not shown): the “hERG current change (%, negative = inhibition) at 10uM” value is -0.726%.

Regarding `CNC(=O)C1CC(=O)N(c2ccc(C)cc2)C1` (stereo not shown), the “hERG current change (%, negative = inhibition) at 10uM” value was -2.55%.

Take `COc1ccccc1NC(=O)CN1CCC(n2c(C)nc3cc(F)ccc32)CC1`: the “hERG current change (%, negative = inhibition) at 10uM” value was -72.2%.

`Cn1cccc1/C=N/NC(=O)Cc1cccc2ccccc12`: the “hERG current change (%, negative = inhibition) at 10uM” value is given as -15.8%.

For the compound `COc1ccc(C(C)(C)NC(=O)C2CCC(=O)N(CCCN3CCCC3=O)C2)cc1` (stereo not shown), the “hERG current change (%, negative = inhibition) at 10uM” value was 10.3%.

On to `Cl.OC(COc1ccc(Cl)cc1)CN1CCN(c2ccccc2)CC1` (stereo not shown), for which the “hERG current change (%, negative = inhibition) at 10uM” value is -29.7%.

As for `O=S(=O)(c1cccc(Cl)c1Cl)N1CCCCC1`, the “hERG current change (%, negative = inhibition) at 10uM” value is -10.4%.

For the compound `CCOC(=O)C(NC(=O)CC)(Nc1ccc(S(N)(=O)=O)cc1)C(F)(F)F` (stereo not shown), the “hERG current change (%, negative = inhibition) at 10uM” value is 8.89%.

As for `O=C(c1cc(-c2ccco2)on1)N1CCN(C(c2ccccc2)c2ccccc2)CC1`, the “hERG current change (%, negative = inhibition) at 10uM” value was -6.24%.

Take `COc1ccc(NC(=S)N2CCN(Cc3ccccc3)CC2)cc1`: the “hERG current change (%, negative = inhibition) at 10uM” value is listed as 0.401%.

Take `CCOc1cc(S(=O)(=O)n2cc(-c3ccc(F)cc3)c(N)n2)cc(OCC)c1OCC`: the “hERG current change (%, negative = inhibition) at 10uM” value came out at 17.1%.

As to `COc1cccc(NC(=O)c2oc3ccccc3c2NC(=O)C2CC2)c1`, the “hERG current change (%, negative = inhibition) at 10uM” value is listed as -4.14%.

`CSCCC(NC(=O)C12CC3CC(CC(C3)C1)C2)C(=O)OCC(=O)c1ccc(Cl)cc1` (stereo not shown): the “hERG current change (%, negative = inhibition) at 10uM” value came to 9.01%.

As for `CCCCCC/C=N/Nc1nnc(Cc2ccc(OC)c(OC)c2)c(=O)[nH]1`, the “hERG current change (%, negative = inhibition) at 10uM” value worked out at 19.8%.

Regarding `N/C(=N\c1nc2ccccc2o1)NC(=O)c1ccccc1NC(=O)c1ccccc1`, the “hERG current change (%, negative = inhibition) at 10uM” value turned out to be 15.4%.

As to `C=CCNC(=O)C1CC(=O)N(c2ccc(OCC(=O)Nc3ccc(Cl)c(C(F)(F)F)c3)cc2)C1` (stereo not shown), the “hERG current change (%, negative = inhibition) at 10uM” value is 1.44%.

As for `CCCCn1c(N)c(N(CC(C)C)C(=O)c2ccc(OCc3c(C)noc3C)cc2)c(=O)[nH]c1=O`, the “hERG current change (%, negative = inhibition) at 10uM” value was determined as 10.6%.

For `CC1CCN(CC(=O)N2c3ccccc3CCc3ccccc32)CC1`, the “hERG current change (%, negative = inhibition) at 10uM” value was -8.38%.

Regarding `CSc1nsc(SC)c1CO`, the “hERG current change (%, negative = inhibition) at 10uM” value came to 9.55%.

`COc1ccc(OC)c(NS(=O)(=O)c2ccc(SC)cc2)c1`: the “hERG current change (%, negative = inhibition) at 10uM” value is -7.15%.

Take `C=CCn1nnnc1SCC(=O)Nc1cccc(C(F)(F)F)c1`: the “hERG current change (%, negative = inhibition) at 10uM” value is given as 9.66%.

Turning to `CCCCCCN1C(=O)C(O)=C(C(C)=O)C1c1ccc(Cl)cc1` (stereo not shown), the “hERG current change (%, negative = inhibition) at 10uM” value is given as -5.13%.

For `O=C(NCc1ccc2c(c1)OCO2)C1CCCN(C(=O)c2ccc(Cl)cc2)C1` (stereo not shown), the “hERG current change (%, negative = inhibition) at 10uM” value is listed as -34.4%.

Turning to `COc1ccc(C)cc1Nc1ccc(C(=O)O)cc1[N+](=O)[O-]`, the “hERG current change (%, negative = inhibition) at 10uM” value was 12.8%.

For the compound `O=C1COc2ccc(C(=O)COC(=O)Cc3ccc(F)cc3)cc2N1`, the “hERG current change (%, negative = inhibition) at 10uM” value is reported as -23.8%.

For `COc1ccc(/C=C/C(=O)c2ccccc2O)cc1`, the “hERG current change (%, negative = inhibition) at 10uM” value is on record as 9.13%.

Consider `Cc1c(C(=O)N2CCc3ccccc3C2)oc2ccc(S(=O)(=O)N3CC(C)CC(C)C3)cc12` (stereo not shown), for which the “hERG current change (%, negative = inhibition) at 10uM” value is -3.31%.

As to `COc1ccccc1CNC(=O)C1CCN(S(=O)(=O)c2cccc3cccnc23)CC1`, the “hERG current change (%, negative = inhibition) at 10uM” value is -9.39%.

For the compound `COc1ccc(-c2sc3cc4c(cc3c2C#CC2(N)CCCCC2)OCO4)cc1`, the “hERG current change (%, negative = inhibition) at 10uM” value stood at 24%.

In the case of `O=C(Cc1ccc(Cl)cc1)NC1CCCCCC1`, the “hERG current change (%, negative = inhibition) at 10uM” value is recorded as -3.09%.

Turning to `Cc1ccc(C(=O)CC2(O)C(=O)N(Cc3ccc4c(c3)OCO4)c3ccccc32)cc1` (stereo not shown), the “hERG current change (%, negative = inhibition) at 10uM” value is -1.01%.

On to `CCCc1[nH]nc2c1C(c1ccccc1OCC)C(C#N)=C(N)O2` (stereo not shown), for which the “hERG current change (%, negative = inhibition) at 10uM” value turned out to be 10.7%.

For the compound `COc1ccc(/C=C(/NC(=O)c2cccc([N+](=O)[O-])c2)C(=O)O)cc1`, the “hERG current change (%, negative = inhibition) at 10uM” value is 9.84%.

On to `CCC(=O)Nc1sc2c(c1C#N)CCC2`, for which the “hERG current change (%, negative = inhibition) at 10uM” value is reported as 9.08%.

For `COc1ccc(-c2cn(CCC(=O)NCc3ccc(C)cc3)c(-c3ccncc3)n2)cc1`, the “hERG current change (%, negative = inhibition) at 10uM” value is on record as -21.3%.

As for `Cn1c(N)c(S(=O)(=O)N2CCCC2)c(=O)n(C)c1=O`, the “hERG current change (%, negative = inhibition) at 10uM” value is 26.2%.

`COc1cccc(C(=O)Nc2cc(C)on2)c1OC`: the “hERG current change (%, negative = inhibition) at 10uM” value is on record as 7.5%.

On to `Cn1c(SCc2cccc(F)c2)nnc1-c1ccccn1`, for which the “hERG current change (%, negative = inhibition) at 10uM” value is given as -8.27%.

Turning to `Cc1sc(NC(=S)NC(=O)c2cccs2)nc1-c1ccc(C(C)C)cc1`, the “hERG current change (%, negative = inhibition) at 10uM” value worked out at 13.9%.
